From patent US20250282868A1 (ITEOS BELGIUM, published 2025)

B1: EOS004284 (antibody, human IgG1, kappa)
heavy: EVQLVESGGGLVQPGRSLRLSCTASGFTFDDYTMSWFRQAPGKGLEWVGFIGSKAYSATTEYTASVKGRFTISRDGSKSIAYLQMNSLKTEDTAVYYCARGKRYSYTYWTPAFDVWGQGTLVTVSS[human IgG1 constant region omitted here]
light: DIQMTQSPSSLSASVGDRVTITCQASQDITNYLNWYQQKPGKAPKLLIYDASNLETGVPSRFSGSGSGTDFTFTISSLQPEDIATYYCQEYDSYITFGGGTKVEIKRTVAAPSVFIFPPSDEQLKSGTASVVCLLNNFYPREAKVQWKVDNALQSGNSQESVTEQDSKDSTYSLSSTLTLSKADYEKHKVYACEVTHQGLSSPVTKSFNRGEC
B2: EOS006179 (antibody, V domains shown)
VH: [about 100 residues omitted here]LRGGYEVGPTFDPWGQGTLVTVSS
VL: DIVMTQSPDSLAVSLGERATINCKSSQSVLYSSNNKNYLAWYQQKPGQPPKLLIYWASTRESGVPDRFSGSGSGTDFTLTISSLQAEDVAVYYCQQHYIWPITFGGGTKVEIK
B3: EOS006169 (antibody, V domains shown)
VH: [about 100 residues omitted here]DRGGYEVGPTFDPWGQGTLVTVSS
VL: B2 VL with I99L, W100T
B4: EOS006215 (antibody, human IgG1, kappa)
heavy: EVQLVESGGGLVQPGRSLRLSCTASGFTFDDYTMSWFRQAPGKGLEWVGFIGSKAYSATTEYTASVKGRFTISRDGSKSIAYLQMNSLKTEDTAVYYCARGKRYSYTYWTPAFDVWGQGTLVTVSS[human IgG1 constant region with changes omitted here]
light: B1 light

Columns and labels:
human TREM2 [1] = molecular target: T1, human TREM2 (human, UniProt Q9NZC2 19-230); experiment: flow cytometry, competition with LDL-Alexafluor-488 on CHO cells overexpressing human TREM2/DAP12; only 1 value generated
T1 construct: on THP-1 WT cells and M2a-like macrophages (endogenous) and on CHO or HEK293T cells overexpressing human TREM2 with DAP12; also called hTREM2
T1 sequence: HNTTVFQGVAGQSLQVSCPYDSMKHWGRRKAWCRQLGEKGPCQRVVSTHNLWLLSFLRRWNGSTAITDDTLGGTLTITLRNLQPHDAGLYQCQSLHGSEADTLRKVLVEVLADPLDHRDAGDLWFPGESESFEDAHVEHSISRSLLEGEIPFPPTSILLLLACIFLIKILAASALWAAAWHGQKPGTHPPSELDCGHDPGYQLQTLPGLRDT
Description: Exemplary anti-TREM2 antibodies were tested in order to characterize their ability to enter in competition with TREM2 ligand, LDL, on CHO overexpressing human TREM2/DAP12. Antibodies (dose response curves from 66.65 nM to 0.07 nM) were incubated for 30 min with cells in a soluble fashion, followed by an incubation with LDL coupled with Alexafluor-488 (at 1 μg/mL final) for 30 min. Finally, after 2 washes, cells were acquired on flow cytometer. The median MFI of Alexafluor-488 was used to plot the graphs. Benchmark antibody MOR044746 was used as positive control.

human TREM2 [2] = molecular target: T1, human TREM2; experiment: cell-based or functional assay
cynomolgus TREM2 [3] = molecular target: T2, cynomolgus TREM2 (cynomolgus, UniProt A0A2K5UY34 49-260); experiment: MFI on CHO cells over-expressing cynoTREM2-DAP12
T2 construct: also called cynoTREM2; cTREM2
T2 sequence: T1 sequence with A10E, W60R, L89F, F125V, I157V, L193P, Y201H
Description: (§1) Cross-reactivity of anti-TREM2 antibodies to cynomolgus TREM2 (cynoTREM2) was assessed using CHO over-expressing cynoTREM2-DAP12 (Table 22). Benchmark antibodies, AB52 and PN-37012, were examined for comparison.

human TREM2 [4] = molecular target: T1, human TREM2; experiment: flow cytometry, THP-1 WT vs THP-1 TREM2 KO cells, 10 ug/ml
Description: (§2) In order to test specificity of selected antibodies to TREM2, binding was tested by flow cytometry on THP-1 TREM2 KO (clone, produced using CRISPR technology in house) and on THP-1 WT. Cells were incubated with selected anti-TREM2 antibodies (final concentration of 10 μg/ml) for 30 min at 4° C. After washing, bound antibodies were detected with a secondary anti-human IgG Fc PE-labelled for 30 min at 4° C. Fluorescence intensity was measured by flow cytometry.

human TREM2 [5] = molecular target: T1, human TREM2; experiment: flow cytometry, THP-1 WT cells, 10 ug/ml
Description: as §2

human TREM2 [6] = molecular target: T1, human TREM2; experiment: flow cytometry, M2a-like macrophages, dose-response
Description: (§3) M2a-like macrophages were produced in vitro from monocytes of healthy donors. Briefly, after PBMCs isolation from peripheral blood using Lymphoprep™ gradient, CD14+ cells were purified and seeded in presence of MCSF 50 ng/ml for 6 days. Macrophages were then cultured with IL-13 and IL-4 at a concentration of 20 ng/ml for two additional days and then used for a cell-based binding assay.
(§4) M2a-like macrophages were incubated with anti-TREM2 antibodies (dose-response curve with 11 concentrations from 10 μg/ml to 0.0001 μg/ml) for 30 min at 4° C. After washing, bound antibodies were detected with a secondary anti-human IgG Fc PE-labelled for 30 min at 4° C. Fluorescence intensity was measured by flow cytometry. Equilibrium dissociation constant (kD) was then calculated for each antibody using median MFI normalized over isotype control.

mouse TREM2 [7] = molecular target: T3, mouse TREM2 (mouse, UniProt Q99NH8 19-227); experiment: MFI on CT26 cells over-expressing mouse TREM2 and DAP12 vs CT26 empty vector
T3 construct: whole, on cells
T3 sequence (looked up): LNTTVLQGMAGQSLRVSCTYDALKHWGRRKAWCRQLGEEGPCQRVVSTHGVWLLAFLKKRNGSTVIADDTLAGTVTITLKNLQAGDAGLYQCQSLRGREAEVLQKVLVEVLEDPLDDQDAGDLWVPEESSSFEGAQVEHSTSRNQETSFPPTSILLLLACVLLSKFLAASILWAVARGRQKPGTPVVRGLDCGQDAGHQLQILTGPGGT
Description: (§5) Cross-reactivity to mouse TREM2 was assessed using CT26 cells over-expressing mouse TREM2 and DAP12 (Table 23). Eight anti-TREM2 antibodies and both benchmark antibodies were considered cross-reactive to mouse TREM2 (MFI higher than isotype control and fold change of CT26-TREM2 over the CT26 Empty Vector higher than 5). The remaining anti-TREM2 antibodies were considered as being low to not cross-reactive (fold change less than 5). EOS006171 was not tested due to clear non-cross-reactivity preliminary data by octet (data not shown).

human TREM2 [8] = molecular target: T1, human TREM2; experiment: flow cytometry, M2a-like macrophages
Description: as §3, §4

mouse TREM2 [9] = molecular target: T3, mouse TREM2; experiment: MFI on CT26 cells over-expressing mouse TREM2 and DAP12
Description: as §5

cynomolgus TREM2 [10] = molecular target: T2, cynomolgus TREM2; experiment: MFI on CHO cells over-expressing cynoTREM2-DAP12 vs CHO empty vector
Description: as §1

mouse TREM2 [11] = molecular target: T3, mouse TREM2; experiment: MFI on CT26 cells over-expressing mouse TREM2 and DAP12; column 'Considered cross-reactive'
Description: as §5

human TREM2 [12] = molecular target: T1, human TREM2; experiment: cell-based or functional assay; remark: listed apart in the source

Row | Binder | IC50 (human TREM2 [1]) [nM] | Fold over isotype control at 66 nM (human TREM2 [2]) [fold] | Binding to CHO-cTREM2 MFI (cynomolgus TREM2 [3]) [MFI] | MFI Fold change (THP-1 WT over THP-1 TREM2 KO) (human TREM2 [4]) [fold] | Fold over isotype control THP1 WT (human TREM2 [5]) [fold] | Kd (human TREM2 [6]) [nM] | MFI Fold change (CT26-TREM2 over CT26-EV) (mouse TREM2 [7]) [fold] | Fold over isotype (human TREM2 [8]) [fold] | Binding to CT26-TREM2 MFI (mouse TREM2 [9]) [MFI] | pSYK/TotSYK EC50 (nM) (human TREM2 [2]) | MFI Fold change (CHO-cTREM2 over CHO-EV) (cynomolgus TREM2 [10]) [fold] | binding result (mouse TREM2 [11]) | IC50, efferocytosis of pHrodo-labelled apoptotic Skov-3 cells by M2a-like macrophages (Incucyte) (human TREM2 [12]) [nM]
1 | B1 | 0.203 | 0.928 |  |  |  |  |  |  |  |  |  |  | 
2 | B2 |  | 2.52 | 21200 | 3.5 | 3.2 | 3.13 | 7.3 | 11.4 | 8700 | 14.5 | 275 |  | 
3 | B3 |  | 2.43 | 5140 | 1.3 | 2.2 | 3.45 | 1.8 | 1.9 | 649 | 4270 | 125 | no binding (tested: fold change less than 5) | 
4 | B4 |  |  |  |  |  |  |  |  |  |  |  |  | 0.36

Substitutions are numbered along the chain they refer to.
